Source: PubChem BioAssay (NCATS)
This list was built around the results that the source calls inconclusive (neither active nor inactive); the mix of calls is not that of the screen. Where the call is inconclusive, the potency comes from a doubtful curve fit. Calls of active or inactive are those of the source. Calls follow the shape of the dose curve; as a rule, active = well fitted inhibition curve with a large enough effect; inconclusive = small, poorly fitted or top-dose-only effect; inactive = flat fitted curve, though single readings scatter.

Test: BET inhibitor-based combinations targeting novel dependencies in MECOM-rearranged (r) AML: AML-194 cell line (AID 2202237; also: nearly all actives have a fitted effect of over 40% in size;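 as to viability (% of control): plate controls were vehicle wells for no effect and wells without cells for full effect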)
Conditions: AML-194 (MECOM-r AML) viability, CellTiter-Glo, 48 h; series mostly up to 46 µM; viability (% of control): at the top concentration
In short: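 Viability of cells (500 per well) is scored by luminescent CellTiter-Glo at 48 hr post-dosing. Eleven-point titrations are normalized to DMSO and empty controls and reduced to AUC values.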
Potency is read from the fitted curve at half-maximal effect; tags tell the direction and shape of the fitted curve.

| SMILES | Potency | viability (% of control) |
| --- | --- | --- |
| COc1cccc2nc(-c3cccs3)nc(NN3C(=O)C=C(C)C3=O)c12 | active: 0.263 µM |  |
| C[C@H]1Oc2cc(cnc2N)-c2c(nn(C)c2C#N)CN(C)C(=O)c2ccc(F)cc21 | inconclusive: 4.68 µM [inhibitor, full curve] |  |
| COCCCc1sc(-c2ccccc2)nc1C(=O)Nc1ccccc1-c1nc2cc(CN3CCCC3)cnc2s1 | inconclusive: 16.2 µM [inhibitor, single point] |  |
| O=C1CCCC2=C1C(c1[nH]ncc1Cl)N=C(Nc1nc3ccccc3o1)N2 (stereo unspecified) |  | inactive: 79.6% |
| C[C@H](Nc1ncnc2nc[nH]c12)c1cc2cccc(Cl)c2c(=O)n1-c1ccccc1 | inconclusive: 14.8 µM [inhibitor, partial curve] |  |
| CN(C)c1ccc(-c2nc3ncc(Cl)c(N4CCN(CC(=O)Nc5nccs5)CC4)c3[nH]2)cc1 | inconclusive: 4.07 µM [inhibitor, full curve] |  |
